In all, about 33,000 sequences were measured (“E-score (-0.5 to 0.5)”: median about -0.056, highest 2% from about 0.38 on). This is one part of the list.
molecular target: Stb4 (UniProt P50104); test: PBM E-score (8-mer binding enrichment) (E-score (-0.5 to 0.5)); higher = stronger / more preferred TF binding; most listed sequences are background and not binding sites; conditions: protein concentration: 200 nM; construct: GST-DNA-binding domain
Summary of the method: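 Detection of bound protein used fluorescent anti-GST, with scans normalised by masliner. The proteins were GST-tagged yeast transcription factors applied at about 100-200 nM to universal all-10-mer Agilent arrays made double-stranded by primer extension. Each ungapped eight-base word, pooled with its reverse complement, was scored with an E-score from the Universal PBM Analysis Suite.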

Sequence	PBM E-score
AGCATTTA	-0.108
CTGGCAGC	-0.168
AGCACCGC	-0.047
AGCTGAAG	-0.133
TAGAAGCA	-0.236
AGGTGTTG	-0.153
TCATTCAA	0.0206
GGAGTGAA	0.0534
GTGTCGGA	0.395
ACCGCACC	0.0783
AACCATAA	-0.2
CAATAATA	-0.041
CCCAAACC	0.0374
CAGCCTTA	-0.142
AAGTGGAA	0.0014
CGAACCTC	0.142
AACGGTGC	-0.15
ACTGGGCC	-0.0135
GGGACCTA	0.0524
AGAGTCTA	-0.315
CGCACACG	-0.053
GTCAAGAA	-0.188
ATTGTGAC	-0.139
ATTTAAAA	0.131
CTGAGGGA	-0.284

Sequence	PBM E-score
GCAGTTTA	-0.0965
GTACGCAA	-0.173
CCCAAGTA	-0.12
CCCGGCAC	0.234
AATCAAGG	0.0313
CTAGCAGA	-0.157
AAGTCCAT	-0.188
GACGCAAC	0.0213
ATCCATCC	0.243
ACAAGGTC	-0.224
CATCATGC	-0.231
AAGCGGAA	0.319
GTAAGCCA	-0.162
ATTTCTTG	0.0395
CATTATGC	0.0226
AGTGAAAC	-0.138
CCCATATA	0.0483
GGGACACA	-0.0587
CCCATCCG	0.324
ATATTCTC	-0.0217
CATATGAC	-0.132
GAGTTACA	0.0652
GCACTTCA	0.0951
CATCACCG	0.077
CGGATCTC	0.3

Sequence	PBM E-score
TCTGAAAA	-0.00585
CATATAAA	-0.288
GAGCCACC	0.0154
ATGCAAAA	-0.0417
CCTCGAAC	-0.249
CTCTCGGA	0.452
CGGTGAGC	0.0243
ATAGTGTC	-0.00418
CCGCTCGA	0.11
AACCGAAC	0.356
CGCAAGTA	-0.0842
CCTGTCTA	-0.149
AGTTCACG	0.0168
CCTGGCGC	0.028
CCGAGAAG	0.386
CCGACAAA	0.281
CGCTTCGC	0.00575
AAGTTCAC	0.0108
CAACTCCC	0.0384
CCCTGTAC	-0.363
AACCCAAT	-0.265
CAACCCAC	-0.0464
AATGGACA	-0.213
TGTTATAA	0.0243
GCGGAGAA	0.109

Sequence	PBM E-score
AGCTAGTG	-0.155
GTTAAGAA	0.0467
ATTCACGG	0.194
CCTCGTGA	-0.089
CACGTATG	-0.105
CGGAATCA	0.388
AAATGGAG	-0.0189
GGCCTTCA	-0.123
ACACGGGA	0.234
AACCGACA	0.286
CAATTTGG	-0.172
CGTACCGC	0.18
CTCCCACA	-0.073
GCTTGTCA	0.0226
AACACTTC	0.117
CTATGGGC	-0.154
ATCGGCAC	0.34
ACCACCCT	-0.162
GCCCGGGA	0.308
CCCCGCGC	0.103
AAGTCTAC	-0.153
CCGCACTC	0.181
ATAAATTC	0.0375
AACAAGGT	-0.134
TACTCCCA	-0.142

Sequence	PBM E-score
CAGGCTAC	-0.173
CGCATATC	0.00065
CTGGTCAC	-0.242
CCACACCC	0.121
CATGATCG	0.0688
GCCCCAGA	-0.0494
AGGAGTTG	0.0175
CAAAGCCC	0.0259
ACGTGGAC	-0.209
CGGCTAGA	0.338
ACCGGACA	0.128
AAGCATAT	0.0485
AACCTTCA	-0.238
AGCCTACC	0.0309
AATATACG	-0.15
GCAATAAA	0.0629
CGTGTCGA	-0.131
CATAACTC	0.0732
CAGGCAAC	-0.243
ATAATGTG	-0.202
CGTATAAG	0.0263
ATCTGACG	-0.213
AATAGATT	0.0863
CGATTAAG	-0.128
CACCCTAG	-0.227

Sequence	PBM E-score
ACGACAGC	-0.224
AATGTGGC	-0.087
AAGATACT	0.0549
GCGAGCGA	-0.0989
ACCCTCAG	-0.236
ATCGCATG	-0.117
GTTAATCA	-0.0342
ACGGGAGG	0.16
CAACGAAA	-0.106
ATTAGGAC	-0.177
TCTTACAA	-0.149
GTAAACTA	-0.0698
GCCGCTCA	-0.0616
GCACCAGC	-0.082
CGGCCCTA	0.0377
CCAAGTTC	0.157
GTGTTCCA	-0.033
CTTAGTAC	-0.183
AGAGGTGA	-0.305
ATCCAGAC	0.0746
GCACCAAA	-0.211
GAAAACAC	0.191
AGTCAACG	-0.242
AGTTAATC	-0.155
ATGGAACG	-0.00061

Sequence	PBM E-score
AGTTGCGG	0.247
ACAGTTAA	-0.0794
ACGCCCTA	-0.0866
AGCCGTGA	0.183
CAGATGCA	-0.36
AACCACGA	-0.149
CATAACCC	0.051
AGAAACAA	-0.0711
CTTGCAAA	0.0481
GAATTGTA	-0.0569
CCTTAAAG	-0.149
CCGTGGCG	0.213
CATGGCGG	0.148
ATACAGAA	0.131
CATTTAGG	-0.174
AGCTGGTG	-0.0692
GCTTCGGA	0.439
CCGTTCGA	0.064
CGCGGCTC	0.191
CTGCAGAA	-0.0161
GATTATGA	-0.0508
CAAGTTCA	0.123

From the supplement of paper PMC3334620
